Results on 29 compounds are retold here after PubChem BioAssay AID1745853 (National Center for Advancing Translational Sciences (NCATS), 2022).

Some of the results follow. These are further read-outs of the screen, such as a control signal, another cell line or another target. No call is given for them.

Test in all cases: Primary Screen for Target Class Profiling of Small Molecule Inhibitors of Methyltransferases
The target of assay [1] is Glycine N-methyltransferase (Homo sapiens) (UniProt Q14749). The note with it: purified enzyme, MTase-Glo SAH luminescence; measured here: GNMT inhibition; at 40 µM; stronger effect = lower value. An outline of the steps: (§1)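 Each enzyme was reacted with SAM and its substrate, with compounds tested once at 40 uM; SAH formed was read by MTase-Glo luminescence.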
Assay [2] concerns the target Guanidinoacetate N-methyltransferase (Homo sapiens) (UniProt Q14353). The note with it: purified enzyme, MTase-Glo SAH luminescence; measured here: GAMT inhibition; at 40 µM; stronger effect = lower value. An outline of the steps:
as §1

Assay [3] concerns the target Histamine N-methyltransferase (Homo sapiens) (UniProt P50135). The note with it: purified enzyme, MTase-Glo SAH luminescence; measured here: HNMT inhibition; at 40 µM; stronger effect = lower value. An outline of the steps: as §1
The target in assay [4] is Nicotinamide N-methyltransferase (Homo sapiens) (UniProt P40261). The following applies: purified enzyme, MTase-Glo SAH luminescence; measured here: NNMT inhibition; at 40 µM; stronger effect = lower value. In short, it runs like this:
as §1

Assay [5] has as its target Phenylethanolamine N-methyltransferase (Homo sapiens) (UniProt P11086). The following applies: purified enzyme, MTase-Glo SAH luminescence; measured here: PNMT inhibition; at 40 µM; stronger effect = lower value. In short, it runs like this:
as §1
% is scaled to controls: 0 for no effect and ±100 for the full control effect.

Consider `CCCN1CCN(CCCN2C(=O)c3cc4occc4n3CC2(C)C(=O)NC2CCCCC2)CC1` (configuration not stated), for which the activity change, negative = inhibition in assay [1] is 6.12%; in assay [2] it was 1.55%; in assay [3], 4.47%; in assay [4], 9.74%; in assay [5], 3.84%.

For the compound `COc1ccc(CNC(=O)c2ccc3c(=O)nc4c(-c5ccccc5F)n[nH]n4c3c2)cc1`, the activity change, negative = inhibition was -15.4% in assay [1]; 0% in assay [2]; 4.52% in assay [3]; 4.08% in assay [4]; -0.171% in assay [5].

For the compound `C=Cc1ccc(Cn2nc3n(CCC)c(=O)c4ccc(C(=O)NC(C)C)cc4n3c2=O)cc1`, the activity change, negative = inhibition is -3.25% in assay [1]; 0% in assay [2]; 1.18% in assay [3]; -7.25% in assay [4]; 1.02% in assay [5].

As to `C=Cc1ccc(CSc2nnc3n(CCC(C)C)c(=O)c4ccccc4n23)cc1`, the activity change, negative = inhibition was 0.418% in assay [1]; 0% in assay [2]; 9.05% in assay [3]; -2.84% in assay [4]; 3.56% in assay [5].

On to `CCc1cc2c(cc3n2CC(C)(C(=O)NC2CCCCC2)N(Cc2ccc(Cl)cc2)C3=O)s1` (configuration not stated), for which the activity change, negative = inhibition in assay [1] is -2.56%; in assay [2] it was 6.01%; in assay [3] it was 0.422%; in assay [4] it was -4.81%; in assay [5] it was -3.98%.

Regarding `CN1C(=O)c2cc(C(=O)NC3CCCCCC3)nn2CC1(C)C(=O)NC1CCCCCC1` (configuration not stated), the activity change, negative = inhibition in assay [1] is -0.078%; in assay [2] it was 0.252%; in assay [3] it was -4.91%; in assay [4], 2.2%; in assay [5], 1.02%.

Take `COc1ccccc1CNC(=O)C1(C)Cn2c(cc3ccccc32)C(=O)N1CCC1=CCCCC1` (configuration not stated): the activity change, negative = inhibition in assay [1] turned out to be 5.29%; in assay [2], 3.9%; in assay [3], 9.02%; in assay [4], 5.95%; in assay [5], 2.19%.

As for `Cc1cc2c(cc3n2CC(C)(C(=O)NC2CCCCCCC2)N(Cc2ccco2)C3=O)o1` (configuration not stated), the activity change, negative = inhibition in assay [1] was -7.06%; in assay [2], -12.6%; in assay [3], -4.53%; in assay [4], -32.1%; in assay [5] it was -13.8%.

Regarding `O=C1CN(Cc2c(F)cccc2Cl)S(=O)(=O)c2ccccc2N1Cc1cccc(F)c1`, the activity change, negative = inhibition in assay [1] was 1.49%; in assay [2] it was 3.92%; in assay [3], -1.17%; in assay [4], -6.84%; in assay [5], -2.63%.

In the case of `COc1ccccc1CNC(=O)c1ncn2c1C(=O)N(C1CC1)C(C)(C(=O)NCc1ccc(C)cc1)C2` (configuration not stated), the activity change, negative = inhibition in assay [1] amounted to 4.82%; in assay [2], 4.36%; in assay [3], 5.62%; in assay [4], 6.34%; in assay [5], 2.88%.

Take `O=C(NCCc1csc(-c2cnccn2)n1)C1CC2(CCNCC2)CN1` (configuration not stated): the activity change, negative = inhibition in assay [1] is -2.21%; in assay [2], 1.17%; in assay [3], -4.46%; in assay [4] it was -8.78%; in assay [5], -5.36%.

Take `CC(C(=O)NCCc1ccc(Cl)cc1)n1ccc2cc(S(=O)(=O)N3CCCC3)ccc21` (configuration not stated): the activity change, negative = inhibition was 1.71% in assay [1]; 2.14% in assay [2]; -0.712% in assay [3]; 0.891% in assay [4]; 0.739% in assay [5].

Consider `CC(C)(O)c1cc2nc(-c3cnc(N)nc3)nc(N3CCOCC3)c2s1`, for which the activity change, negative = inhibition in assay [1] is 1.9%; in assay [2], 4.02%; in assay [3], 3.84%; in assay [4], -18.6%; in assay [5], -2.22%.

As for `O=C(CCn1ccc2cc(S(=O)(=O)N3CCCC3)ccc21)NCc1cccs1`, the activity change, negative = inhibition in assay [1] is -0.059%; in assay [2], 0.392%; in assay [3] it was 3.73%; in assay [4], 0%; in assay [5] it was 1.3%.

As to `CC(=O)N1CCC2(CC1)CC(c1cccc(C(F)(F)F)c1)=NO2`, the activity change, negative = inhibition was 0.225% in assay [1]; 2.84% in assay [2]; 2.8% in assay [3]; -2.6% in assay [4]; -1.82% in assay [5].

On to `CNC1(C)C2CCC(C2)C1(C)C` (configuration not stated), for which the activity change, negative = inhibition in assay [1] was -0.188%; in assay [2], 2.28%; in assay [3], 3.3%; in assay [4] it was -10.5%; in assay [5], -3.19%.

For `CN(C)CCC(CSc1ccccc1)Nc1ccc(S(=O)(=O)NC(=O)c2ccc(N3CCN(Cc4ccccc4-c4ccc(Cl)cc4)CC3)cc2)cc1[N+](=O)[O-]` (configuration not stated), the activity change, negative = inhibition in assay [1] is -7.76%; in assay [3], -13.2%.

Turning to `CS(=O)c1ccc(-c2nc(-c3ccc(F)cc3)c(-c3ccncc3)[nH]2)cc1` (configuration not stated), the activity change, negative = inhibition in assay [1] is -31.7%; in assay [2] it was -8.8%; in assay [3], -33.5%; in assay [4], -37.5%; in assay [5], -23.3%.

Take `Cc1c(Cn2c(C)nc3c(C(=O)O)cc(N4CCOCC4)cc32)cccc1C(F)(F)F`: the activity change, negative = inhibition in assay [1] was 5.58%; in assay [2] it was 8.81%; in assay [3], 13.5%; in assay [4], -15%; in assay [5], 9.89%.

Turning to `CCN1C(=O)c2cc(C(=O)NCc3ccccc3OC)nn2CC1(C)C(=O)NC1CCCC1` (configuration not stated), the activity change, negative = inhibition is 3.81% in assay [1]; 0% in assay [2]; -4.8% in assay [3]; 5.63% in assay [4]; 4.17% in assay [5].

In the case of `O=C(NCc1ccc(Oc2ccccc2)cc1)c1nc(-c2cc(Br)c(O)c(Br)c2)no1`, the activity change, negative = inhibition in assay [1] was -7.43%; in assay [2], -48%; in assay [3], -61.9%; in assay [4], -85.2%; in assay [5] it was -27.6%.

For `CN1CCc2[nH]cnc2C12CCN(C(=O)Cc1ccc(F)cc1Cl)CC2`, the activity change, negative = inhibition in assay [1] is -4.66%; in assay [2], 0.818%; in assay [3] it was -5.94%; in assay [4], -2.89%; in assay [5], 1.4%.

On to `CN[C@@H]1[C@H](O[C@H]2[C@H](O[C@@H]3[C@@H](O)[C@H](O)[C@@H](N=C(N)N)[C@H](O)[C@H]3N=C(N)N)O[C@@H](C)[C@]2(O)C=O)O[C@@H](CO)[C@H](O)[C@H]1O`, for which the activity change, negative = inhibition is 3.1% in assay [1]; -2.1% in assay [2]; 2.38% in assay [3]; -12.4% in assay [4]; -5.54% in assay [5].

`CC(=O)OC12CC(C)C(OC(=O)c3ccccc3)C1/C=C(/C)C(OC(=O)c1ccccc1)CC(=O)C(C)(C)/C=C/C(C)C2=O` (configuration not stated): the activity change, negative = inhibition was 0.934% in assay [1]; 2.66% in assay [2]; 12% in assay [3]; -17% in assay [4]; -3.03% in assay [5].

With `COc1ccc(-c2nnc(-c3ccc(OC)c(S(=O)(=O)N4CCCCCC4)c3)o2)cc1OC`, the activity change, negative = inhibition in assay [1] was -4.55%; in assay [2], 1.84%; in assay [3], 12%; in assay [4] it was 2.16%; in assay [5], 7.27%.

Consider `C=C1C(=O)O[C@@H]2C[C@H](C)[C@@]3(O)C=C(C(C)=O)[C@]4(CC3C[C@H]12)C(=O)O[C@H]1C[C@@H](C)C(CCC(C)=O)=CC[C@H]14` (some centres not stated), for which the activity change, negative = inhibition is -1.38% in assay [1]; 4.7% in assay [2]; 10.3% in assay [3]; -9.06% in assay [4]; 5.42% in assay [5].

Consider `COc1cccc(CNC(=O)Cn2nc3ccc(SCc4ccc(Cl)cc4)nn3c2=O)c1`, for which the activity change, negative = inhibition in assay [1] was -14.6%; in assay [2], 0%; in assay [3], 7.79%; in assay [4] it was 3.02%; in assay [5] it was 5.32%.

Regarding `O=c1[nH]c2ccc(S(=O)(=O)Nc3ccc(Br)cc3F)cc2[nH]1`, the activity change, negative = inhibition was 6.66% in assay [1]; 0% in assay [2]; 10.6% in assay [3]; 4.81% in assay [4]; -16.8% in assay [5].

As to `COC(=O)Cn1c(=O)oc2cc(S(=O)(=O)NCCc3sccc3C)ccc21`, the activity change, negative = inhibition is 0.073% in assay [1]; 3.04% in assay [2]; 6.24% in assay [3]; -2.07% in assay [4]; 1.47% in assay [5].
